The values that follow come from PubChem BioAssay AID342 (DTP/NCI, 2004).

SMILES strings stand for the structures. For part of its entries the source gives two or more results. The list is limited to them. There may be further records. Results that share an entry are repeats (runs, samples, wells, individuals or studies). Counts like (3×) give the number of equal values in this list.

The test system of this assay is Swiss mice, Sarcoma 180 sc, mean tumor weight T/C. Nature of the assay: NCI In Vivo Anticancer Drug Screen. Data for tumor model Sarcoma 180 (subcutaneous) in Swiss mice. Particulars: endpoint: mean tumor weight, higher = larger tumour. The method, boiled down:
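Tumor-bearing mice, transplantable tumor; readout survival or tumor size; result = T/C, treated vs vehicle control.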

Setting [1] is: dose: 83.0 mg/kg/injection, schedule: Q#A X014 (ip), vehicle: methylcellulose (MC).
Setting [2] is: dose: 125.0 mg/kg/injection, schedule: Q#A X014 (ip), vehicle: methylcellulose (MC).
Where [3] appears, read: dose: 50.0 mg/kg/injection, schedule: Q01DX007 (ip), vehicle: saline.

As to `CCN(CC)CCNc1ccc(C)c2sc3ccccc3c(=O)c12`, the T/C runs as follows: (dose: 39.0 mg/kg/injection, schedule: Q01DX007 (ip), vehicle: carboxymethylcellulose (CMC)) 61 % of control and 120 % of control; (dose: 78.0 mg/kg/injection, schedule: Q01DX007 (ip), vehicle: carboxymethylcellulose (CMC)) 31 % of control and 77 % of control. As to `O=C(O)CC[S-].[Ag+]`, the T/C reads like this: under setting [1], 49 % of control, 74 % of control, 110 % of control; under setting [2], 36 % of control, 55 % of control, 83 % of control. Turning to `O=C(N[C@H](CO)[C@H](O)c1ccc([N+](=O)[O-])cc1)C(Cl)Cl`, where the note is “dose: 500.0 mg/kg/injection, schedule: Q01DX007 (ip), vehicle: carboxymethylcellulose (CMC)”, the T/C was 78 % of control and 111 % of control (2×). For the compound `CCCOP(=S)(N1CC1)N1CC1`, the T/C (dose: 10.0 mg/kg/injection, schedule: Q#A X014 (ip), vehicle: saline) is 59 % of control and 91 % of control.

Take `CC1OC(OC2C(CO)OC(O[C@H]3CC[C@@]4(C)C(=CC[C@H]5[C@@H]6C[C@@H]7O[C@@]8(CC[C@H](C)CN8)[C@@H](C)[C@@H]7[C@@]6(C)CC[C@@H]54)C3)C(OC3OC(C)C(O)C(O)C3O)C2O)C(O)C(O)C1O` (some centres undefined): under “dose: 10.0 mg/kg/injection, schedule: Q01DX007 (ip), vehicle: saline”, the T/C is 55 % of control and 99 % of control. For the compound `CC(=O)Nc1c(Cl)c(Cl)c2c(c1Cl)Cc1cc(Cl)c(Cl)cc1-2`, for the setting “dose: 375.0 mg/kg/injection, schedule: Q01DX007 (ip), vehicle: other”, the T/C is 20 % of control and 47 % of control. With `CC1=C(/C=C/C(C)=N/NC(N)=S)C(C)(C)CCC1`, the T/C (dose: 13.0 mg/kg/injection, schedule: Q01DX007 (ip), vehicle: other) is 42 % of control and 71 % of control; the T/C (dose: 30.0 mg/kg/injection, schedule: Q01DX007 (ip), vehicle: other) was 20 % of control and 75 % of control.

Take `Cc1cc(C)c(N)c(C)c1N`: the T/C reads like this: (dose: 55.5 mg/kg/injection, schedule: Q#A X014 (ip), vehicle: methylcellulose (MC)) 44 % of control, 66 % of control, 104 % of control; under setting [1], 62 % of control, 77 % of control, 88 % of control; under setting [2], 22 % of control, 57 % of control, 110 % of control. As for `CC(=O)OCC(=O)C1(O)C(C)CC2C3C=C(C)C4=Cc5c(cnn5-c5ccccc5)CC4(C)C3C(O)CC21C` (centres undefined), the T/C runs as follows: (dose: 0.5 mg/kg/injection, schedule: Q01DX007 (sc), vehicle: steriod suspending solution) 12 % of control, 52 % of control, 93 % of control; (dose: 1.0 mg/kg/injection, schedule: Q01DX007 (sc), vehicle: steriod suspending solution) 13 % of control, 37 % of control, 79 % of control; (dose: 2.0 mg/kg/injection, schedule: Q01DX007 (sc), vehicle: steriod suspending solution) 38 % of control and 95 % of control; (dose: 4.0 mg/kg/injection, schedule: Q01DX007 (sc), vehicle: steriod suspending solution) 20 % of control and 58 % of control. `Nc1ncnc2c1ncn2C1OC(COCc2ccccc2)C(OCc2ccccc2)C1OCc1ccccc1` (centres undefined): the T/C (dose: 80.0 mg/kg/injection, schedule: Q01DX007 (ip), vehicle: saline) was 68 % of control and 95 % of control. On to `CN1CCc2cc3c(cc2C(=O)Cc2ccc4c(c2C1)OCO4)OCO3`, for which the T/C (dose: 12.5 mg/kg/injection, schedule: Q01DX007 (ip), vehicle: saline) was 67 % of control and 97 % of control. With `CC1C[C@@H]2[C@H]([C@@H](O)C[C@@]3(C)[C@H]2CC[C@]3(O)C(=O)CF)[C@@]2(C)CCC(=O)C=C12` (some centres undefined), the T/C (dose: 140.5 mg/kg/injection, schedule: Q#A X014 (sc), vehicle: steriod suspending solution) is 30 % of control, 41 % of control, 57 % of control.

Regarding `CN(C)c1ccc2c(c1)Cc1cc(N=C3C=CC(=O)O3)ccc1-2`, the T/C (dose: 110.0 mg/kg/injection, schedule: Q01DX007 (ip), vehicle: other) was 42 % of control and 68 % of control. As for `Nc1nc(SCc2ccccc2)c2ncn(CCCl)c2n1`, under “dose: 188.0 mg/kg/injection, schedule: Q01DX007 (ip), vehicle: carboxymethylcellulose (CMC)”, the T/C is 5 % of control and 73 % of control. For `[Cl][Pt+2]([Cl])([Cl])[Cl].[Na+].[S-]c1ncnc2nc[nH]c12.[S-]c1ncnc2nc[nH]c12`, where the note is “dose: 33.5 mg/kg/injection, schedule: Q#A X014 (ip), vehicle: methylcellulose (MC)”, the T/C is 33 % of control and 62 % of control.

On to `CN(C)c1ccc(C(C#N)C(C#N)c2ccccc2)cc1` (centres undefined), for which the T/C (dose: 13.3 mg/kg/injection, schedule: Q#A X014 (ip), vehicle: methylcellulose (MC)) is 53 % of control and 114 % of control; the T/C (dose: 20.0 mg/kg/injection, schedule: Q#A X014 (ip), vehicle: methylcellulose (MC)) is 26 % of control and 90 % of control; the T/C (dose: 30.0 mg/kg/injection, schedule: Q#A X014 (ip), vehicle: methylcellulose (MC)) is 29 % of control and 104 % of control.

Regarding `[N-]=[N+]=CC(=O)NCC(=O)NN`, under “dose: 600.0 mg/kg/injection, schedule: Q01DX007 (ip), vehicle: other”, the T/C is 26 % of control and 78 % of control.

Regarding `O=C1C=CC(=Nc2ccc3c(c2)C(Br)c2ccccc2-3)O1` (centres undefined), the T/C (dose: 25.0 mg/kg/injection, schedule: Q#A X014 (ip), vehicle: saline) was 34 % of control and 80 % of control. With `C[C@]12CCC(=O)C=C1[C@@H](F)C[C@@H]1[C@@H]2[C@@H](O)C[C@@]2(C)[C@H]1CC[C@]2(O)C(=O)CO`, the T/C (dose: 83.0 mg/kg/injection, schedule: Q01DX007 (sc), vehicle: steriod suspending solution) is 35 % of control and 76 % of control. Take `CCCCCCCCCCCCCCCCCC1=NC(C)CC(C)(C)O1` (centres undefined): the T/C reads like this: (dose: 83.0 mg/kg/injection, schedule: Q#A X014 (ip), vehicle: saline) 58 % of control and 103 % of control; (dose: 125.0 mg/kg/injection, schedule: Q#A X014 (ip), vehicle: saline) 61 % of control and 102 % of control. Take `CCCCCCCCCCCCCCCCCC1=NCCN1CCN`: the T/C (dose: 33.0 mg/kg/injection, schedule: Q#A X014 (ip), vehicle: saline) is 48 % of control and 74 % of control. Consider `CS(=O)(=O)OCCC(=O)N1CCN(C(=O)CCOS(C)(=O)=O)CC1`, for which the T/C was 23 % of control, 43 % of control, 60 % of control (dose: 44.0 mg/kg/injection, schedule: Q#A X014 (ip), vehicle: methylcellulose (MC)); 60 % of control and 121 % of control under setting [3]; 47 % of control and 82 % of control (dose: 100.0 mg/kg/injection, schedule: Q01DX007 (ip), vehicle: saline). Regarding `Nc1nc(=S)c2ncn(C3CCCO3)c2[nH]1` (centres undefined), the T/C by setting is: (dose: 13.0 mg/kg/injection, schedule: Q01DX007 (ip), vehicle: carboxymethylcellulose (CMC)) 55 % of control and 98 % of control; (dose: 30.0 mg/kg/injection, schedule: Q01DX007 (ip), vehicle: carboxymethylcellulose (CMC)) 20 % of control and 51 % of control.

`O=C(O)c1ccc(N=NSc2ncnc3nc[nH]c23)cc1O`: the T/C is 28 % of control, 33 % of control, 88 % of control (dose: 2.0 mg/kg/injection, schedule: Q01DX007 (ip), vehicle: carboxymethylcellulose (CMC)); 12 % of control and 43 % of control (dose: 4.0 mg/kg/injection, schedule: Q01DX007 (ip), vehicle: carboxymethylcellulose (CMC)).

`O=c1[nH]cc(F)c(=O)[nH]1`: the T/C (dose: 4.7 mg/kg/injection, schedule: Q01DX007 (ip), vehicle: carboxymethylcellulose (CMC)) is 66 % of control and 116 % of control; the T/C (dose: 9.5 mg/kg/injection, schedule: Q01DX007 (ip), vehicle: carboxymethylcellulose (CMC)) was 44 % of control and 98 % of control. Take `C[C@@H]1CC2=CC(=O)C=C[C@]2(C)[C@H]2CC[C@@]3(C)[C@@H](CC[C@]3(C)O)[C@H]12`: where the note is “dose: 500.0 mg/kg/injection, schedule: Q01DX007 (sc), vehicle: steriod suspending solution”, the T/C is 39 % of control and 68 % of control. For `Brc1ccc(-c2csc(Nc3nc(-c4ccc(Br)cc4)cs3)n2)cc1`, under “dose: 450.0 mg/kg/injection, schedule: Q01DX007 (ip), vehicle: carboxymethylcellulose (CMC)”, the T/C was 15 % of control and 51 % of control. For `C=CCSc1ncnc2c1ncn2C1OC(CO)C(O)C1O` (centres undefined), under setting [3], the T/C is 51 % of control and 86 % of control. For the compound `CN(C)/N=N/c1nc[nH]c1C(N)=O`, for the setting “dose: 80.0 mg/kg/injection, schedule: Q01DX007 (ip), vehicle: carboxymethylcellulose (CMC)”, the T/C was 40 % of control and 78 % of control. In the case of `COC(=O)CC(C(=O)C=[N+]=[N-])N1C(=O)c2ccccc2C1=O` (centres undefined), for the setting “dose: 1.6 mg/kg/injection, schedule: Q01DX007 (ip), vehicle: carboxymethylcellulose (CMC)”, the T/C is 59 % of control and 90 % of control. Regarding `O=CNC(Cc1cccc(N(CCCl)CCCl)c1)C(=O)O` (centres undefined), the T/C runs as follows: (dose: 6.5 mg/kg/injection, schedule: Q#A X014 (ip), vehicle: methylcellulose (MC)) 23 % of control and 73 % of control; (dose: 10.0 mg/kg/injection, schedule: Q#A X014 (ip), vehicle: methylcellulose (MC)) 12 % of control and 59 % of control. In the case of `O=c1[nH]c(=O)n(C2CC(O)C(CO)O2)cc1F` (centres undefined), the T/C (dose: 64.0 mg/kg/injection, schedule: Q01DX007 (ip), vehicle: carboxymethylcellulose (CMC)) was 14 % of control and 40 % of control.
